What was measured:
[1] = biological target: T1, hCD16a V158 (Cat. no. CD8-H52H4, Acro Biosystems) (human, UniProt P08637 17-208); experiment: SPR (Biacore T200), 200 nM hCD16a over the engager held on immobilised hBCMA-rFc
T1 construct: also called human CD16a V158; hCD16a V158 allotype

[2] = biological target: T2, hCD16a F158 (Cat. no. CDA-H5220, Acro Biosystems) (human, UniProt P08637 17-208); experiment: as above
T2 construct: also called human CD16a F158; hCD16a F158 allotype

[3] = biological target: T3, BCMA on MM.1S multiple myeloma cells (human, UniProt Q02223 1-184); experiment: cell-based or functional assay
T3 sequence (looked up): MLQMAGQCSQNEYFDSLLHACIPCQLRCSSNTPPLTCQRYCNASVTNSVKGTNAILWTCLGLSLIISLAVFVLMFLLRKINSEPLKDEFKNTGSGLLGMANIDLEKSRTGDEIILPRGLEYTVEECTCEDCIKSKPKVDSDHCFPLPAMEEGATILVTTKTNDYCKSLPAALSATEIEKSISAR

[4] = biological target: T1, hCD16a V158 (Cat. no. CD8-H52H4, Acro …); experiment: SPR (Biacore T200), single cycle kinetics, immobilised hCD16a; apparent KD (avidity)
[5] = biological target: T2, hCD16a F158 (Cat. no. CDA-H5220, Acro …); experiment: as above
[6] = biological target: T2, hCD16a F158 (Cat. no. CDA-H5220, Acro …); experiment: SPR (Biacore 8K), 200 nM hCD16a over the thiol-coupled binder, 4 °C
[7] = biological target: T1, hCD16a V158 (Cat. no. CD8-H52H4, Acro …); experiment: SPR, 200 nM hCD16a over thiol-immobilised binder, 4 °C
[8] = biological target: T1, hCD16a V158 (Cat. no. CD8-H52H4, Acro …); experiment: SPR, equilibrium responses, immobilised hCD16a
[9] = biological target: T2, hCD16a F158 (Cat. no. CDA-H5220, Acro …); experiment: SPR, equilibrium responses, immobilised hCD16a

B1: Anti-BCMA (1-E6)-H09-A10-His6 (designed binder)
chain: VDNKFNKENQFADEEIAALPNLNFYQKWAFIRKLMDDPSQSANLLAEAKKLNDAQAPKGGGSGGGGSGGGGSGVDNKFNKEFWIAESEIESLPNLNIYQKWAFKYSLADDPSQSANLLAEAKKLNDAQAPKGGGSGGGGSGGGGSGVDNKFNKEVQMAQFEIRKLPNLNHHQSFAFIKSLMDDPSQSANLLAEAKKLNDAQAPKYYHHHHHH
notes: also called anti-hBCMA-H09-A10-His6
Does B1 bind [1]?
Result: binds

Does B1 bind [2]?
Result: binds

And the “EC50, 8-hour flow cytometry-based killing assay, NK cells and MM.1s (E:T 5:1)” value [3]?
The value was 0.4 nM.

What about the “EC90, 8-hour flow cytometry-based killing assay, NK cells and MM.1s (E:T 5:1)” value [3] of the same binder?
Its value is 2 nM.

B2: Anti-BCMA (1-E6)-A10-A10-His6 (designed binder)
chain: VDNKFNKENQFADEEIAALPNLNFYQKWAFIRKLMDDPSQSANLLAEAKKLNDAQAPKGGGSGGGGSGGGGSGVDNKFNKEVQMAQFEIRKLPNLNHHQSFAFIKSLMDDPSQSANLLAEAKKLNDAQAPKGGGSGGGGSGGGGSGVDNKFNKEVQMAQFEIRKLPNLNHHQSFAFIKSLMDDPSQSANLLAEAKKLNDAQAPKYYHHHHHH
notes: also called anti-BCMA-A10-A10-His6
What does the source list for B2?
Kd [4]: 0.3 nM; Kd [5]: 0.4 nM; EC50, 8-hour flow cytometry-based killing assay, NK cells and MM.1s (E:T 5:1) [3]: 0.4 nM; EC90, 8-hour flow cytometry-based killing assay, NK cells and MM.1s (E:T 5:1) [3]: 3.8 nM

B3: His6-A11-Cys (designed binder)
chain: GSSHHHHHHYYLEVDNKFNKEQFYARDEIDLLPNLNEDQKWAFYMSLIDDPSQSANLLAEAKKLNDAQAPKC
notes: immobilised on the chip by thiol coupling through the C-terminal Cys
Does B3 bind [6]?
Result: binds

Does B3 bind [7]?
Result: binds

B4: His6-H09-ABDWT (designed binder)
chain: GSSHHHHHHYYLEVDNKFNKEFWIAESEIESLPNLNIYQKWAFKYSLADDPSQSANLLAEAKKLNDAQAPKVDYVLAEAKVLANRELDKYGVSDYYKNLINNAKTVEGVKALIDEILAALP
B4 was tested. Which Kd [8] did it give?
The Kd was 4900 nM.

What about the Kd [9] of the same binder?
Its Kd is 621 nM.

— patent publication US20250333445A1 (ONCOPEPTIDES INNOVATION 1, published 2025)
